Reference: publication PMC4336329 (PLoS ONE, 2015)
Hit rate of the full screen: of about 310,000 compounds, about 14,000 (4.5%) showed an effect of 50% or more. The effect is printed as a negative number. Some of the results follow.

target: human ether-à-go-go-related gene (hERG) potassium channel (human, UniProt Q12809); assay: primary screen, population patch clamp on CHO cells stably expressing hERG
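Note: peak tail current of the secondary pulse compared with the same well before compound.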

human ether-à-go-go-related gene (hERG) potassium channel, sequence (Q12809 whole entry, looked up): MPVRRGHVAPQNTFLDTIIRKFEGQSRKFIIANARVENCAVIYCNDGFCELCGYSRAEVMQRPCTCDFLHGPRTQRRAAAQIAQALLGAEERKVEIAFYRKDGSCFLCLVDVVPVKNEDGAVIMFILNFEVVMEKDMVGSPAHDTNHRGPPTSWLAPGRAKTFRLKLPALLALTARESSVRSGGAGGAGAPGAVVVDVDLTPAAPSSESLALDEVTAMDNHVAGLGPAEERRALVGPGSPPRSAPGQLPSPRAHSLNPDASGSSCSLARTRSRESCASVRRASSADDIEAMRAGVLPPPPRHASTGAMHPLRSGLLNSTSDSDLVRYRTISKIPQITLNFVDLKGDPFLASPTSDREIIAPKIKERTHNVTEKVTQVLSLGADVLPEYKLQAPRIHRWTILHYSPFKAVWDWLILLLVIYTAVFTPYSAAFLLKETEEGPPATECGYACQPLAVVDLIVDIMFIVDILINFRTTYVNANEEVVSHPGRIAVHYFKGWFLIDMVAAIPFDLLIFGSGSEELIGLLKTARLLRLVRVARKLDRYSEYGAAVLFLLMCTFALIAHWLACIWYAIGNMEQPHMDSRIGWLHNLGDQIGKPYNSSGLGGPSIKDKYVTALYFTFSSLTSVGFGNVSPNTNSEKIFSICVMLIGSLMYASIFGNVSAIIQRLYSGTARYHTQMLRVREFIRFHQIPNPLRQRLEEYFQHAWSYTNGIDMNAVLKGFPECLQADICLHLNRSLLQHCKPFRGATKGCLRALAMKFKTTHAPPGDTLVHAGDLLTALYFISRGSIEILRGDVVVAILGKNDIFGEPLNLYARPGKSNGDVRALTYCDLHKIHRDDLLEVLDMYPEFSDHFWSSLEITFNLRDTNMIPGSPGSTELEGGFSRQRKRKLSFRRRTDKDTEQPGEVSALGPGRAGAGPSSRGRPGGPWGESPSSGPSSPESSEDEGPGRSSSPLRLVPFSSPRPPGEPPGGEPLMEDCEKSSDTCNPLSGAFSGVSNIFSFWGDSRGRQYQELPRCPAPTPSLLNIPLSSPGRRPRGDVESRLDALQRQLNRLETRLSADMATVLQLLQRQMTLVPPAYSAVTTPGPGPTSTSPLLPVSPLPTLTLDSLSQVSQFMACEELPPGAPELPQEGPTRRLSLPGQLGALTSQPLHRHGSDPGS

SMILES | hERG current change (%, negative = inhibition) at 10uM [%]
CC(=O)c1nc(-c2ccccc2)sc1C | 4.79
O=[N+]([O-])c1cc(C(F)(F)F)cc([N+](=O)[O-])c1NCCN1CCNCC1 | 4.88
O=C(Nc1ccc(-c2nnco2)cc1)c1ccccc1 | 12.4
CC(=O)Nc1ccc(NS(=O)(=O)c2cc([N+](=O)[O-])ccc2C)cc1 | -7.26
Cc1ccc2[nH]c(-c3cccc(N)c3)cc2c1 | 18.4
O=C(Nc1ccc(-c2cn3ccccc3n2)cc1)c1cccs1 | 7.11
CCCCc1cc(=O)oc2cc(OCC(=O)Nc3cccnc3)c(Cl)cc12 | 17.1
Cc1ccc(NCc2ccccc2OCc2ccccc2F)cc1 | 14
COc1ccc(Br)cc1S(=O)(=O)N1CCCc2ccccc21 | 7.2
CCN1CCCC1CNC(=O)C(=O)NCc1ccccc1 (stereo not drawn) | -11.6
C[C@@H](Nc1nc(-c2ccccc2)nc2c1oc1ccccc12)C(=O)O | 8.49
CC(C)(C)NC(=O)C(c1ccccc1)N(Cc1cccs1)C(=O)c1csnn1 (stereo not drawn) | -5.27
COc1cc(NC(=O)CSc2nc3[nH]c(=O)cc(O)c3s2)cc(OC)c1OC | 11.2
CCOc1cc(/C=N/NC(=O)c2ccccn2)ccc1OC(=O)c1cccs1 | 3.92
COCCN(C(=O)CCC(=O)Nc1nccs1)C(C(=O)NCCC(C)C)c1ccc(OC)cc1 (stereo not drawn) | -2.09
Fc1ccc(-c2cc(C(F)(F)F)nc(-n3cc(Cl)cn3)n2)cc1 | -3.04
O=C1c2oc3ccccc3c(=O)c2C(c2ccccn2)N1Cc1ccccc1 (stereo not drawn) | 5.53
CC(NC(=O)c1cccnc1)c1ccc2c(c1)OCO2 (stereo not drawn) | 2.4
CCOC(=O)c1c(N)n[nH]c1-c1ccc(OC)cc1 | -5.63
CCn1cc(S(=O)(=O)CC(=O)Nc2ccc(OC)cc2)c2ccccc21 | 3.79
O=C(Nc1ccccc1C(=O)OCc1nnc(-c2ccccc2)o1)c1ccco1 | -36.6
Cc1ccc(CN(C(=O)c2ccco2)C2CCS(=O)(=O)C2)cc1 (stereo not drawn) | -7.1
Cc1c(C)c2ccc(OCC(=O)Nc3ccc(N4CCC(C)CC4)cc3)cc2oc1=O | 14.7

SMILES | hERG current change (%, negative = inhibition) at 10uM [%]
CCOc1ccc(NC(c2ccccn2)c2oc(CO)cc(=O)c2O)cc1 (stereo not drawn) | 5.43
O=C(Cc1nc2ccccc2[nH]1)c1ccc(Cl)cc1 | -1.59
CCCNc1cc(C)oc(=O)c1C(=O)CC | 14.5
N#Cc1c(C(F)(F)F)cc(-c2ccco2)nc1SCc1ccncc1 | -5.81
Cc1cc(=O)[nH]c(N/N=C/c2ccc(F)cc2)n1 | -8.55
Cc1cc(C)n2c(=O)c3ccc(Cl)cc3nc2c1C#N | 0.487
O=C(CCS(=O)(=O)Cc1ccccc1)N1CCN(c2ccccc2)CC1 | -7.79
COc1ccc(-c2cc(CNS(=O)(=O)c3cc(OC)ccc3OC)on2)cc1 | 6.1
COc1ccc(C)cc1S(=O)(=O)NC(C)C(=O)Nc1ccc2c(c1)OCO2 (stereo not drawn) | 2.08
Cc1ccc(-n2c(CNc3ccc(F)cc3)nnc2SCC(N)=O)cc1 | -32.1
O=S(=O)(c1ccc(Br)s1)N1CCCCC1 | -4.03
CCOc1ccc(N(CC(=O)NCCCOC)S(C)(=O)=O)cc1 | 4.53
C=C(C)Cn1c(=O)c2c(nc3n2CCCN3CCc2ccccc2)n(C)c1=O | -73.3
O=C(Nc1ccccc1)Nc1cccc2ccccc12 | 13.4
CC1CCC(=O)N(CCOc2ccccc2)CC1 (stereo not drawn) | -13.8
COc1ccc(N2CCN(C(=S)Nc3ccc(F)cc3)CC2)cc1 | 16.3
CC1CC(C)CN(S(=O)(=O)c2cccc3nonc23)C1 (stereo not drawn) | 4.47
COc1cc(C2C(C(C)=O)=C(O)C(=O)N2c2ccc(C)cc2)ccc1O (stereo not drawn) | 17
CC(C)NC(=O)NC(=O)CSc1nncn1C | -25.9
C/C(=N\N=C1\NC(=O)C(CC(=O)Nc2ccccc2F)S1)C1CCCCC1 (stereo not drawn) | -10.5
CCCCn1c(SCc2cccnc2)nc2c1c(=O)n(C)c(=O)n2C | -28
COc1ccc(C(C)(C)C)cc1NC(=O)COC(=O)C1=NNC(=O)CC1 | 5.4
